Where “and” joins values, the source holds several entries; their conditions need not be identical. Identical values can stand only once. Screen size: about 72,000 compounds; about 710 (0.99%) were called active. The shares of active, inactive and inconclusive entries below differ from those in the screen. The call rests on the fitted dose curve; in most records, active means well fitted inhibition curve with a large enough effect; inconclusive means small, poorly fitted or top-dose-only effect; inactive means no such curve, though single readings can be large or run the other way. No potency is given beside an inconclusive call; the fits are too rough.
assay: qHTS Assay for Inhibitors of the ERK Signaling Pathway using a Homogeneous Screening Assay; settings: HEK293-V1b, vasopressin-stimulated pERK AlphaScreen; activity, negative = inhibition: at 57.5 µM (top of the series) unless noted; further: nearly all actives have a fitted effect of over 55% in size
In short: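 HEK293 cells stably expressing V1b receptor, seeded overnight in 1% FBS, were treated with compounds for 30 min at 37C, then stimulated 5 min with 25 nM vasopressin; phospho-ERK read by AlphaScreen SureFire after lysis.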
On the % scale 0 is the no-effect control and ±100 the full control effect; potency means the concentration at half of the fitted maximal effect; tags describe the fitted curve by direction and shape.

SMILES | activity, negative = inhibition | Potency
COc1ccc(OC)c(C2OCCC=CC2C)c1 (stereo unspecified) | inactive: 8.4% [at 11.5 µM] | 
COc1ccc(C2CC(c3cccc(C)c3)n3nc(N)nc3N2)cc1 (stereo unspecified) |  | inconclusive [inhibitor, partial curve]
CCOc1ccc(OCCSc2nnnn2C2CCCCC2)cc1 |  | inactive
COc1ccc2[nH]cc(CCNc3ncncc3-c3ccccc3C)c2c1 |  | inconclusive [inhibitor, partial curve]
CNC(=O)c1ccccc1NC(=O)c1ccc(C)c(S(=O)(=O)N2CCCCC2)c1 |  | inconclusive [inhibitor, partial curve]
COc1ccc(Oc2ncc3nc(C)c(=O)n(CCc4ccccc4)c3n2)cc1 |  | inactive
COc1ccc2cc(C(=O)CCC(=O)O)ccc2c1 | inactive: 22.5% [at 11.5 µM] | 
CCOC(=O)N1CCC2(CC1)C(C#N)=C(N)Oc1c2c(C)nn1-c1cccc(Cl)c1 |  | inconclusive [inhibitor, partial curve]
Cn1c(-c2ccc3ccccc3n2)nc2cnccc21 |  | inactive
Cc1nnc(SCC(=O)NC(=O)NC(C)(C)C)n1N | inconclusive: -38.2% [inhibitor] | 
COC(=O)[C@@]1(Cc2ccc(OC)cc2)[C@H]2c3cc(C(=O)N(C)C)n(C)c3C[C@H]2CN1C(=O)c1ccccc1 |  | inactive
O=C(c1ccc(Br)o1)N(c1ccc(Br)cc1)C1C=CS(=O)(=O)C1 (stereo unspecified) |  | inconclusive [inhibitor, partial curve]
CC12C=C(/C=C/c3ccc(Br)cc3)C(C)(C1)C(c1ccc(Br)cc1)CC2=O (stereo unspecified) | inactive: 18.1% [at 11.5 µM] | 
N#CC1=C(N)SC(N)=C(C#N)C1c1ccc(C(F)(F)F)cc1 |  | inactive
COc1ccc(C2=NCC(CSc3nccc(=O)[nH]3)S2)cc1 (stereo unspecified) |  | inconclusive [inhibitor, partial curve, poor fit]
Nc1cc(N)cc(-c2nc3ccccc3[nH]2)c1 |  | inactive
Cn1c(=O)c2cc(S(=O)(=O)N3CCOCC3)ccc2n(C)c1=O |  | inactive
CC(C)C(C)C |  | inactive
Cc1ccccc1C(=O)NCc1ccncc1 |  | active: 25.1 µM
C[C@H]1CN(S(=O)(=O)c2cccc3cnccc23)CCN1 |  | inactive
O=S(=O)(O)c1ccc2c(N=Nc3c(O)ccc4ccccc34)cccc2c1 | inactive: -15.7% [at 11.5 µM] | 
O=C1OCCC1Sc1nc2ccccc2n1Cc1ccccc1 (stereo unspecified) |  | inconclusive [inhibitor, single point]
Cc1ccc(-c2nnc3c4ccccc4c(C)nn23)cc1S(=O)(=O)N1CCN(CCO)CC1 |  | inconclusive [inhibitor, partial curve, poor fit]
CCOC(=O)SC1=N/C(=C\c2ccc(N(C)C)cc2)C(=O)S1 |  | inconclusive [inhibitor, partial curve]

SMILES | activity, negative = inhibition | Potency
COc1ccccc1-c1n[nH]c(=S)o1 |  | inconclusive [inhibitor, partial curve, poor fit]
CN(CC(=O)O)Cc1c[nH]c2ccccc12 | inactive: 9.18% [at 11.5 µM] | 
CC1CCCc2sc3nc(N4CCN(CCO)CC4)n4ncnc4c3c21 (stereo unspecified) |  | inconclusive [inhibitor, partial curve]
COc1cccc(OC)c1OCCCSc1nc(C)cc(=O)[nH]1 |  | inconclusive [inhibitor, full curve, poor fit]
Cc1[nH]c2ccccc2c1NC(=O)CN1CCN(c2cccc(C(F)(F)F)c2)CC1 |  | inconclusive [inhibitor, single point]
CCn1c(SCC(=O)N(C(C)C)C(C)C)nnc1-c1cc2ccccc2cc1O |  | inconclusive [inhibitor, single point]
COC(=O)c1c(NC(=O)c2ccco2)sc(C(=O)N2CCCC2)c1C |  | inconclusive [inhibitor, full curve, poor fit]
CCN(CC)c1ccc(N)cc1 |  | inconclusive [inhibitor, partial curve, poor fit]
COc1ccccc1N1CCN(Cc2nc(N)nc(Nc3ccc(C)c(Cl)c3)n2)CC1 |  | inconclusive [inhibitor, partial curve]
O=C(Nc1ccc(N2CCCCC2)cc1)c1ccc(F)cc1 |  | inconclusive [inhibitor, single point]
COc1ccc(-c2nc(C#N)c(N3CCCCCC3)o2)cc1OC |  | inconclusive [inhibitor, partial curve]
Cc1ccc(S(=O)(=O)N[C@H](CN)C(=O)O)cc1 | inactive: 1.36% [at 11.5 µM] | 
O=S(=O)(Nc1nc2ccccc2nc1NCC1CCCO1)c1cccs1 (stereo unspecified) |  | inactive
CCn1c2ccccc2c2nnc(SCCCn3c(=O)[nH]c4ccccc43)nc21 |  | inconclusive [inhibitor, single point]
COc1ccc(S(=O)(=O)C(C#N)c2nc3ccccc3nc2N2CCCC(C)C2)cc1 (stereo unspecified) |  | inconclusive [inhibitor, partial curve]
c1ccc(CCNc2c3c(nc4ncnn24)CCC3)cc1 |  | inconclusive [inhibitor, partial curve]
Cc1cccc2cccnc12 |  | inactive
O=C(O)[C@@H](O)[C@@H](O)[C@@H](O)[C@@H](O)c1nc2ccccc2s1 | inactive: 9.1% [at 11.5 µM] | 
O=C1C[C@@H](O)[C@@H](O)[C@H]2[C@@H]3C(=O)N(c4cccc(Oc5ccccc5)c4)C(=O)[C@@H]3CC[C@H]12 | inactive: -7.44% [at 11.5 µM] and inactive: -3.17% [at 11.5 µM] | 
O=C(c1ccco1)N1CCN(C(=O)C(Sc2ccccc2)c2ccccc2)CC1 (stereo unspecified) |  | inconclusive [inhibitor, partial curve, poor fit]
COc1cccc(CN2C(=O)CN(C3CCCCC3)C(=O)C2c2ccc(F)cc2)c1 (stereo unspecified) |  | inactive
Cc1ccc2nc3c(cc(C(=O)NCC4CCCO4)c(=N)n3CCCOC(C)C)c(=O)n2c1 (stereo unspecified) |  | inconclusive [inhibitor, single point]
O=C1CC(c2ccc(F)cc2)Sc2ccccc2N1 (stereo unspecified) |  | inconclusive [inhibitor, partial curve, poor fit]
CCOC(=O)c1sc(NC(=O)c2ccco2)nc1C |  | inactive

SMILES | activity, negative = inhibition | Potency
Cc1cc(Cl)ccc1OCc1nc(-c2ccc(O)cc2)n[nH]1 |  | inconclusive [inhibitor, partial curve]
Cc1sc(NC(=O)CSc2nnc(COc3ccccc3)n2C)c(C#N)c1C |  | inactive
Cc1nnsc1NC(=O)OCC(C)C |  | inconclusive [inhibitor, single point]
Cc1ccc2[nH]c(=S)cc(C)c2c1 |  | inactive
CCC(O)c1cc2c(cc1NC(=O)c1ccc(C)cc1)OCCO2 (stereo unspecified) |  | inconclusive [inhibitor, single point]
CC(C)CCn1c(N2CCOCC2)nc2c1c(=O)n(CC(N)=O)c(=O)n2C |  | inconclusive [inhibitor, single point]
CCCn1c(=O)c2ccccc2n2c(SCC(=O)NCc3cccs3)nnc12 |  | inconclusive [inhibitor, full curve, poor fit]
C=C1C(=O)C=C2CN(C(=O)c3ccccc3)[C@@](Cc3ccc(F)cc3)(C(=O)OC)[C@@H]12 |  | active: 10 µM
CCOc1nc(NCc2ccco2)nc(Nc2ccc(OC)cc2)n1 |  | inconclusive [inhibitor, partial curve]
CC(=O)OCC(=O)[C@@]12OC(C)(C)O[C@@H]1C[C@H]1[C@H]3C[C@H](F)C4=CC(=O)C=C[C@@]4(C)[C@]3(F)[C@H](O)C[C@@]12C |  | inactive
O=C(NC1CCCCC1)C(c1ccccc1)N(Cc1ccco1)C(=O)Cn1cnc2ccccc21 (stereo unspecified) |  | inactive
COc1ccc(-c2nnc(SCC(=O)c3cc(C)n(Cc4cccs4)c3C)o2)cc1 |  | inconclusive [inhibitor, single point]
COc1cc(C2N(c3ccccc3)CCN2c2ccccc2)ccc1OC(C)=O |  | inactive
COc1cc(-c2nnc3sc(-c4ccccn4)nn23)cc(OC)c1OC |  | inactive
COc1ccc(C2CC(c3ccc(Cl)cc3)Nc3nc(NC(=O)c4ccco4)nn32)cc1 (stereo unspecified) |  | inconclusive [inhibitor, single point]
O=C(Nc1cccc(Cl)c1N1CCCC1)c1ccc(Br)o1 |  | inactive
O=C(O)CCC/C=C\C[C@@H]1CO[C@H](C(F)(F)F)O[C@@H]1c1ccccc1O |  | inactive
COC(=O)COc1nc(C)c2c(c1C#N)CC(C)(C)OC2 |  | inconclusive [inhibitor, single point]
CC(C)c1nc2sc3c(SCC(=O)NCc4ccco4)ncnc3c2c2c1CCC2 |  | inconclusive [inhibitor, partial curve]
COc1ccccc1-c1nnc(SCC(=O)Nc2ccccc2)o1 |  | active: 25.1 µM
CC(C)=CCC/C(C)=C/CO/N=C1/C[C@@H](O)[C@@H](O)[C@@H]2[C@@H]3C(=O)N(c4cccc(Oc5ccccc5)c4)C(=O)[C@H]3CC[C@@H]12 | inactive: 7.29% [at 11.5 µM] | 
COc1ccc(S(=O)(=O)N2CCC(C(=O)NCc3ccccn3)CC2)cc1C |  | inconclusive [inhibitor, partial curve, poor fit]
CN(C)c1ccc(-c2ccc3ncnc(N(C)C)c3c2)cc1 |  | inconclusive [inhibitor, partial curve]
